The list shows a part of the results.
Legend:
HSkMC = human skeletal muscle cells; assay: cytotoxicity call (relative viability < 0.9); conditions: 10 µM
HepG2 = assay: cytotoxicity call (relative viability < 0.9); conditions: 10 µM
S. aureus RN4220 = assay: growth inhibition call (relative growth <= 0.2); conditions: 50 µM

Compound | cytotoxicity call (HSkMC) | cytotoxicity call (HepG2) | growth inhibition call (S. aureus RN4220)
C[C@@H]1COCS(=O)(=O)N1 | inactive | inactive | inactive
CS(=O)(=O)Nc1ccc([N+](=O)[O-])cc1Oc1ccccc1 | inactive | inactive | inactive
C[C@@H]1CN([C@@H](C)CO)C(=O)c2cccc(NC(=O)c3cnccn3)c2O[C@@H]1CN(C)C(=O)Nc1ccc2c(c1)OCO2 | inactive | inactive | inactive
COc1ccc(S(=O)(=O)N(C)C[C@@H]2Oc3ncc(C#CC4(O)CCCC4)cc3C(=O)N([C@H](C)CO)C[C@H]2C)cc1 | inactive | inactive | inactive
C[C@@H]1CN([C@@H](C)CO)S(=O)(=O)c2ccc(Br)cc2O[C@H]1CN(C)C(=O)c1cccc(F)c1 | inactive | inactive | inactive
C[C@H]1CN(C(=O)N(C)C)CCN1C(=O)N(C)C | inactive | inactive | inactive
C[C@H]1CN([C@@H](C)CO)C(=O)Cc2cc(NC(=O)C3CCCCC3)ccc2O[C@@H]1CN(C)Cc1ccc(C(=O)Nc2ccccc2N)cc1 | inactive | inactive | inactive
N#C/C(=N\O)C(=O)c1ccco1 | inactive | inactive | inactive
C[C@@H]1CN([C@@H](C)CO)C(=O)c2cc(NC(=O)Nc3ccccc3)ccc2O[C@@H](C)CCCCO[C@H]1CN(C)S(=O)(=O)c1ccc(Cl)cc1 | inactive | active | inactive
C[C@@H]1CCCCO[C@@H](CN(C)CC2CCCCC2)[C@@H](C)CN([C@@H](C)CO)C(=O)c2cc(NS(=O)(=O)c3ccc(F)cc3)ccc2O1 | inactive | inactive | inactive
Cc1ccc(S(=O)(=O)Nc2ccc3c(c2)C(=O)N([C@@H](C)CO)C[C@H](C)[C@H](CN(C)S(=O)(=O)c2ccc(F)cc2)O3)cc1 | inactive | inactive | inactive
